Each block holds one binder with its values, some of them ahead of it.
Key:
[1] = target: T1, human LAG-3-His (LAG-3 with C-terminal polyhistidine tag, ACROBiosystems) (human, UniProt P18627 23-450); assay: ELISA on LAG-3-His, detection via anti-human IgG Fc-HRP
T1 construct: Bought protein; also called recombinant LAG-3-His
T1 sequence (looked up): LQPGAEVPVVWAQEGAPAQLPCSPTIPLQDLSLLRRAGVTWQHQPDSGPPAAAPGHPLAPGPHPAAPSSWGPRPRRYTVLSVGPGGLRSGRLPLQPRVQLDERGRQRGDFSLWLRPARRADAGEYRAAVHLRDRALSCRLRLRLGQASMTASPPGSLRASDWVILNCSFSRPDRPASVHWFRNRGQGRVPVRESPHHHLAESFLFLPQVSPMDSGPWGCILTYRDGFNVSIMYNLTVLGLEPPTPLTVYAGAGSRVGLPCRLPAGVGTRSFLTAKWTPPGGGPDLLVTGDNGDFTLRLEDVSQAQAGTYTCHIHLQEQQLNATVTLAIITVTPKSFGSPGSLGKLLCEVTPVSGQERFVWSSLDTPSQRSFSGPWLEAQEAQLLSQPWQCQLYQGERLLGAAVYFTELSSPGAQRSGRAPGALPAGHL

[2] = target: T1, human LAG-3-His (LAG-3 with C-terminal …); assay: ELISA on LAG-3-His, detection via anti-Tlc antibody-HRP

EC50 [1]: 70 pM
EC50 [2]: 90 pM
B1: Fc-lipocalin mutein fusion polypeptide (SEQ ID NO: 41) (Fc fusion)
chain: [not shown - human IgG4 Fc with S228P (EU numbers)]GGGGSGGGGSGGGGSASDEEIQDVSGTWYLKAMTVDSDCFWIDDVSVTPMTLTTLEGGNLEAKVTMDIFGFWQEVKAVLEKTDEPGKYTADGGKHVAYIIRSHVKDHYIFYSEGECAGYPVPGVWLVGRDPKNNLEALEDFEKAAGARGLSTESILIPRQSETSSPG
notes: also called lipocalin mutein Fc fusion; LAG-3 monospecific fusion polypeptide

EC50 [1]: 1100 pM
EC50 [2]: 1500 pM
B2: Fc-lipocalin mutein fusion polypeptide (SEQ ID NO: 42) (Fc fusion)
chain: [not shown - human IgG4 Fc with S228P (EU numbers)]GGGGSGGGGSGGGGSASDEEIQDVPGTWYLKAMTVSGEDPEMMLESVTPMTLTTLEGGNLEARVTVLIDGRCQEVKNVLEKTDEPGKYTEDGGKHVDYIIRSHVKDHYIFYFEGEGQGTPGRMVALVGRDPTNNLEALEDFEKAAGARGLSTESILIPRQSETCSPG
notes: as for B1

From patent US20190010231A1 (Pieris, published 2019)
